This is one part of the list. At the low end of the ranking the order means little.
molecular target: SIX1-Q177R homeodomain (UniProt Q15475); test: universal protein binding microarray; details: Universal all-10-mer PBM (8x60K, AMADID 030236), 300 nM GST-tagged protein, Alexa Fluor 488 anti-GST; buffer, salt, pH and temperature not stated; high values mean tight binding; most listed sequences are background and not binding sites; double strand, one strand shown

| Sequence | binding signal [E-score] |
| --- | --- |
| CATAAACA | 0.0837 |
| ATATACTA | 0.0556 |
| AAATCTCA | -0.157 |
| ACCTGGAA | 0.111 |
| GAGGTCTA | 0.00402 |
| CCTGAATC | -0.125 |
| ATTGTGTG | 0.0178 |
| AGTCAAAT | -0.189 |
| CCGAGGAA | 0.131 |
| CCTGACTC | 0.115 |
| AGGCCAAG | -0.163 |
| CAGGGCCG | -0.0709 |
| AGCATAAA | -0.0234 |
| ATGTCCGG | -0.23 |
| GTGCCCGA | 0.128 |
| ATCCGCGG | 0.0619 |
| AGCTATTA | -0.248 |
| ATTGGACC | -0.0294 |
| GGAGTGAC | 0.139 |
| CCCTTGAG | 0.0318 |
| CAACCGTA | -0.357 |
| AACATACG | -0.188 |
| GCCAATCC | -0.121 |
| CCTTAAGC | -0.137 |
| GCCCTGAA | -0.185 |

| Sequence | binding signal [E-score] |
| --- | --- |
| GGACTAAC | -0.0725 |
| AAAATAAA | -0.169 |
| GCATTGCA | 0.0131 |
| TCGGTTCA | 0.0108 |
| ATAGTCGC | -0.0145 |
| GCGGGGGA | 0.157 |
| CTAGTCTC | -0.213 |
| AGGTAATG | -0.0501 |
| GGGTGCAA | 0.261 |
| GCACGACC | 0.255 |
| ACAACAAT | 0.0987 |
| CCACGCAC | 0.0821 |
| CTATAGAC | -0.0286 |
| AACGCCGG | 0.104 |
| CATCGCGG | -0.194 |
| GTACTAGA | 0.155 |
| TATTCTCA | -0.0638 |
| CGTAGCGA | -0.0924 |
| CTCAGATA | -0.314 |
| GCGGGCCC | -0.0174 |
| GACTGTCA | -0.105 |
| GATTCTAC | 0.00138 |
| ACTATCTC | -0.0775 |
| TCTACCCA | 0.0236 |
| ACCATACC | 0.0352 |

| Sequence | binding signal [E-score] |
| --- | --- |
| ATACGAGC | 0.0115 |
| ACTTACAG | -0.0163 |
| CTGCATCA | -0.211 |
| GTGTCGCA | 0.442 |
| GACCCCAC | 0.218 |
| ATACCGCC | 0.141 |
| CTCTTGCC | -0.129 |
| GCGACGAC | -0.144 |
| CGCAGTCC | -0.173 |
| AGATAAAA | 0.0966 |
| AGTCCGTA | -0.151 |
| GCATCGCC | -0.122 |
| AGATTAGC | -0.297 |
| CAACGAGA | -0.177 |
| ACACGCAC | 0.405 |
| GGCGCACA | 0.0588 |
| AGTGGTAC | -0.00249 |
| CCGCCCGA | 0.174 |
| ATCTATGG | -0.271 |
| CTAATGTA | -0.111 |
| GCACTGGA | -0.108 |
| ATAGGACA | 0.0691 |
| ACTGGGGC | -0.203 |
| AGAGTGCC | -0.242 |
| AGTAGGGC | 0.0368 |

| Sequence | binding signal [E-score] |
| --- | --- |
| CACCCTGG | 0.315 |
| CACACTCA | 0.21 |
| CATCAATA | -0.0687 |
| ACCACGGC | -0.0946 |
| CTCCGAGC | 0.0411 |
| ATCTATTC | -0.0709 |
| AGTCTGGC | -0.192 |
| ACACATGA | 0.132 |
| GTCTAGGA | -0.114 |
| AGGCGCAC | -0.0554 |
| GAGCTCCC | -0.129 |
| GGTTAAAA | 0.0283 |
| ATAGATGA | -0.0212 |
| AGGTGTAT | 0.441 |
| AGCCCTCC | 0.00655 |
| AGTTCGAG | 0.0214 |
| GGCAAAGA | -0.291 |
| GCGGATAA | 0.162 |
| CCCGGACG | 0.165 |
| CGAAGGTA | 0.0165 |
| ATAGCCAC | -0.202 |
| CCTTAAAC | 0.0384 |
| CTGCGCGC | 0.0164 |
| ACGTCTGC | -0.115 |
| AAAGTGAT | -0.0242 |

| Sequence | binding signal [E-score] |
| --- | --- |
| CCCCATGC | 0.201 |
| GTAGTCAC | 0.0921 |
| GACTTCGA | -0.311 |
| AGGGTAGA | 0.0482 |
| CCCACTTA | -0.0803 |
| AGACACTG | 0.341 |
| GTATGCAC | 0.117 |
| CAGCCTTC | -0.332 |
| CCGCGCAC | 0.149 |
| AGATCCAT | -0.198 |
| CGGGTACG | 0.182 |
| ATATCATC | -0.134 |
| AAGGATTA | -0.00536 |
| AGCCCGGA | 0.00594 |
| CACGTGCC | 0.225 |
| AAATACAT | -0.17 |
| ATATCATG | -0.132 |
| AAAGTAAC | -0.172 |
| CGCTAAGA | 0.111 |
| ATATCAGC | -0.182 |
| TGTGCGAA | -0.0466 |
| GGATCCCA | 0.235 |
| AACAGGCA | -0.178 |
| CTGCCGTA | -0.126 |
| GGGGGACA | 0.116 |

| Sequence | binding signal [E-score] |
| --- | --- |
| CCGAGAGC | -0.109 |
| TACACCAA | 0.475 |
| ACGCTGAG | -0.0156 |
| AGGCATAC | -0.0952 |
| CTGTCTGC | -0.0663 |
| AACTTGGG | -0.204 |
| TTCGAAAA | -0.0447 |
| CAGTCGTC | -0.309 |
| GAGTCTGC | -0.119 |
| TAATGCTA | -0.119 |
| GTGGTATA | 0.153 |
| GTACGAGA | -0.135 |
| CCCATAGC | -0.119 |
| GAGGACGA | 0.0238 |
| CATAGTGC | -0.134 |
| AGCTAGGA | -0.212 |
| CTGAGATA | -0.0701 |
| CGTATTCC | 0.0818 |
| AGAATTCT | -0.0421 |
| GGCGGCCC | -0.215 |
| ACGTCGCT | -0.158 |
| ATTCATGC | 0.00265 |
| CTACGGGA | 0.122 |
| CCGGCCGG | 0.0511 |
| CTCTCATA | -0.0324 |

| Sequence | binding signal [E-score] |
| --- | --- |
| AACCCTAA | 0.0778 |
| CAGCCGAG | -0.147 |
| CCGTCAAA | -0.128 |
| CGATGCAG | -0.054 |
| ATGTTCGC | -0.213 |
| ACAGTTAC | -0.0385 |
| CCCGTCAG | 0.072 |
| CCCAGTCG | -0.117 |
| AGATAGGC | -0.0723 |
| CGTACTGA | -0.0164 |
| ATTAAATA | -0.0373 |
| ATATAAAT | -0.0705 |
| TACACCTA | 0.47 |
| CGCGCCTC | 0.0623 |
| CCGCGTGC | 0.0465 |
| GAGGCCAA | -0.117 |
| ATACAGCA | -0.0433 |
| CATACAAC | -0.0671 |
| AGAACGCC | -0.0645 |
| GATTGTCC | -0.109 |
| CGCACTGA | -0.0399 |
| AGAAATTA | -0.183 |

— publication PMC10668032
